Experimental data published in the supplement of paper PMC11417369.
Some of the results follow.

The sequences below were run on PfSIP2 AP2 domain 1 (GST-tagged) (assay: gcPBM binding intensity (ln(normalized median fluorescence intensity)); higher = stronger DNA binding).
How it was run: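 Binding of GST-tagged P. falciparum DNA-binding domains, expressed in E. coli and used at about 25 μg on average, was carried out for 1 h in 1× PBS containing 1% milk, 0.2 mg/ml BSA, 0.5% salmon testes DNA and 0.03% Triton X-100. The target was an Agilent 4 × 180k array of primer-extended double-stranded 36-bp intergenic genomic probes plus negative controls, read with Alexa488 anti-GST antibody at 488 nm. Binding intensity is the highest Masliner-normalised natural-log median intensity across replicate spots of either probe orientation.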

| Sequence | gcPBM binding intensity (ln) |
| --- | --- |
| AATGGATGAATGAATGTATGAATGAATGTATGAATG [CACACA_negctrl_site91] | 7.17 |
| ATGTATGTGTAACATAGTACTTTTTAAAAGGATATT [XGTACX_site5328] | 6.92 |
| TATAGATACATATACACACACACACCCACATATATA [CACACA_site3436] | 7.18 |
| AATATCATATAAAAATGTACAAATTCTAAAACACGA [XGTACX_site1442] | 7.29 |
| TATTTTTTATAATAATGTACATATATATATATAATA [XGTACX_site2329] | 7.35 |
| GTATTCATGCTAAAGGTGCAATAATTTTTATAATAA [GTGCAC_site9603] | 10.9 |
| AAGATAAAATTATGTAGTACAAAAAAAAATAAAAAA [XGTACX_site139] | 6.86 |
| ATCAAACCTTTTAAATGTACATTCGGAGTAAAAAAA [XGTACX_site282] | 7.21 |
| TTAAAAATGTTGGAAAGTACATATTTTTTAAAAGTA [XGTACX_site802] | 7.03 |
| CGCCTATAAGCTTAGACACACAAATAAATAAATATA [CACACA_site1264] | 6.97 |
| TACCTAATTCGGTCCCGTACAAGTTAGTTTCAATTC [XGTACX_site2703] | 6.55 |
| TATTGGGGGTATAAACACAGTAAGTAAATAAATAAA [CACACA_negctrl_site1680] | 7.41 |
| TCTATTCATTTTGAAGGTACACATTTCTTTATAATA [XGTACX_site6218] | 6.99 |
| GTATTAGATAAATACACACACAAGCATATATTTTTA [CACACA_site3431] | 6.93 |
| AATATATCATTATATAAACACACAATATGTTTTTTA [CACACA_site9260] | 6.72 |
| AAAAATATATATATATATATATATATAAGGAATATA [XGTACX_negctrl_site450] | 7.69 |
| AATAAATATATAAATACACACAAACATACATATATA [CACACA_site9340] | 7.09 |
| AATACAATATAGTGAAAAATAATTAAATACAATAAG [XGTACX_negctrl_site161] | 6.93 |

| Sequence | gcPBM binding intensity (ln) |
| --- | --- |
| CGTAAACAATTATGATGTACATAAAATATATATATA [XGTACX_site2705] | 8.58 |
| TTGTTCCACAAAAATTTAGTCAAAAAAAAATAAAAA [TGCATGCA_negctrl_site546] | 6.76 |
| ACAAAAAAAAAAATAACACACATGGGGGTGTATAAA [CACACA_site3797] | 7.39 |
| AATGAATAACAATACTATATGATTTTTAATACATTA [XGTACX_negctrl_site42] | 6.67 |
| TTAAATTTTTTTTTGTGTACGAAAAACAGAAAAAAT [XGTACX_site8625] | 7.31 |
| TATGTGTATGGGAATGCATGTAAATATGTACATATA [TGCATGCA_site737] | 7.29 |
| ATATATATATACATATGTACATATAAAATAATTTTG [XGTACX_site3731] | 9.05 |
| TCTTCCCAAATAAAGTGTACATAAATACGAATAATA [XGTACX_site4363] | 7.18 |
| AAAATTAAAATATATACACACATATATATATTAAAT [CACACA_site4419] | 6.79 |
| TAATGTATATGTAAATGTACATGTATATTATTTAAA [XGTACX_site1840] | 6.93 |
| ATCAAAGATAAATTTACACACATATATATATATATA [CACACA_site2969] | 9.46 |
| AAGATATTTGTATAATGTACAAAACTATATAAAACT [XGTACX_site1433] | 6.77 |
| TATTTTCATTTGCGCGCACACAATAATAATTTTTGG [CACACA_site3525] | 7.88 |
| AACAATTATTTATCTACACACTTTTATGTTATTTAC [CACACA_site9] | 7.06 |
| TATAAATTAATGACATGTACATAAAAGTATAGATGT [XGTACX_site6534] | 7.3 |
| TAAAAAATATAAATGACACACACTTAAAAACAAAGA [CACACA_site671] | 7.21 |
| AAATATACAAAATATACACACATATTTATTTATGAT [CACACA_site2051] | 6.9 |
